Counter-ions that a name gives are not always drawn. ± gives the standard deviation of the averaged measurements. Whole data set: some 1,300 compounds, median “normalised cell viability” near 1, cut for the lowest 2% near 0.14. The list shows a part of the results.
Test system: V-C8 (BRCA2-deficient hamster cells)
Experiment: normalised cell viability (fraction of plate median); higher = more viable cells (less toxic)
Details: 5 µM
How it was run: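 In two screens, library drugs at 5 μM were given for 3 days (screen 1) or 6 days (screen 2) to hamster V-C8 cells without BRCA2 and V-C8 cells with BRCA2 restored, seeded 24 h earlier in 96-well plates. A resazurin assay gave the cell viability readout, expressed as modified robust per cent of sample against the plate median, with triplicate wells averaged.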

Row | Compound | normalised cell viability (treatment time: 3 days) | normalised cell viability (treatment time: 6 days)
1 | Cc1scc2c1N(C(=O)CN1CCN(C)CC1)c1ccccc1NC2=O [Telenzepine dihydrochloride] | 1.02 ± 0.047 | 1.03 ± 0.041
2 | CO[C@H]1/C=C/O[C@@]2(C)Oc3c(C)c(O)c4c(c3C2=O)C2=NC3(CCN(CC(C)C)CC3)NC2=C(NC(=O)/C(C)=C\C=C\[C@H](C)[C@H](O)[C@@H](C)[C@@H](O)[C@@H](C)[C@H](OC(C)=O)[C@@H]1C)C4=O [Rifabutin] | 0.973 ± 0.096 | 0.876 ± 0.032
3 | O=C(Cn1ccnc1[N+](=O)[O-])NCCO [Etanidazole] | 1.02 ± 0.015 | 1.005 ± 0.0075
4 | COc1c(O[C@@H]2O[C@H](CO)[C@@H](O)[C@H](O)[C@H]2O)cc2c(c1OC)-c1ccc(SC)c(=O)cc1[C@@H](NC(C)=O)CC2 [Thiocolchicoside] | 1.22 ± 0.36 | 0.97 ± 0.017
5 | CN(C)CCN(Cc1cccs1)c1ccccn1 [Methapyrilene hydrochloride] | 1.05 ± 0.066 | 1.05 ± 0.033
6 | NC(=O)N1c2ccccc2C=Cc2ccccc21 [Carbamazepine] | 1.04 ± 0.057 | 0.979 ± 0.053
7 | Clc1ccc(C(Cn2ccnc2)OCc2c(Cl)cccc2Cl)c(Cl)c1 (stereo unspecified) [Isoconazole] | 1.12 ± 0.04 | 1.09 ± 0.045
8 | Nc1nc(F)nc2c1ncn2[C@@H]1O[C@H](CO)[C@@H](O)[C@@H]1O [Fludarabine] | 1 ± 0.052 | 1.01 ± 0.1
9 | CC[C@H]1OC(=O)[C@H](C)[C@@H](O[C@H]2C[C@@](C)(OC)[C@@H](O)[C@H](C)O2)[C@H](C)[C@@H](O[C@@H]2O[C@H](C)C[C@H](N(C)C)[C@H]2O)[C@](C)(O)C[C@@H](C)/C(=N\OCOCCOC)[C@H](C)[C@@H](O)[C@]1(C)O [Roxithromycin] | 1 ± 0.058 | 0.958 ± 0.06
10 | Nc1nc(=O)c2nc(CNc3ccc(C(=O)N[C@@H](CCC(=O)O)C(=O)O)cc3)cnc2[nH]1 [Folic acid] | 1.1 ± 0.047 | 0.913 ± 0.041
11 | CC(=O)N[C@@H](CC(C)C)C(=O)O [N-Acetyl-L-leucine] | 1.01 ± 0.13 | 1.06 ± 0.022
12 | CC(C)NCC(O)COc1ccc(COCCOC(C)C)cc1 (stereo unspecified) [Bisoprolol fumarate] | 1.04 ± 0.044 | 1.16 ± 0.049
13 | Nc1nc(=S)c2ncn([C@@H]3O[C@H](CO)[C@@H](O)[C@H]3O)c2[nH]1 [Thioguanosine] | 0.307 ± 0.013 | 0.28 ± 0.017
14 | O=C1CN2Cc3c(ccc(Cl)c3Cl)N=C2N1 [Anagrelide] | 1.01 ± 0.077 | 1.03 ± 0.054
15 | CO/N=C(\C(=O)N[C@@H]1C(=O)N2C(C(=O)O)=C(COC(N)=O)CS[C@H]12)c1ccco1 [Cefuroxime sodium salt] | 0.961 ± 0.015 | 0.933 ± 0.029
16 | O=C(NCC(O)CO)c1c(I)c(C(=O)NCC(O)CO)c(I)c(N(CCO)C(=O)CO)c1I (stereo unspecified) [Ioversol] | 0.969 ± 0.05 | 1 ± 0.089
17 | Nc1ccc(S(=O)(=O)Nc2ccnn2-c2ccccc2)cc1 [Sulfaphenazole] | 1.01 ± 0.011 | 1.03 ± 0.031
18 | CC1Cc2ccccc2N1NC(=O)c1ccc(Cl)c(S(N)(=O)=O)c1 (stereo unspecified) [Indapamide] | 1.02 ± 0.043 | 1.04 ± 0.025
19 | Cc1cc(CC(=O)O)n(C)c1C(=O)c1ccc(Cl)cc1 [Zomepirac sodium salt] | 1.12 ± 0.033 | 0.958 ± 0.12

Row | Compound | normalised cell viability (treatment time: 3 days) | normalised cell viability (treatment time: 6 days)
20 | CC[C@H]1OC(=O)[C@H](C)[C@@H](O[C@H]2C[C@@](C)(OC)[C@@H](O)[C@H](C)O2)[C@H](C)[C@@H](O[C@@H]2O[C@H](C)C[C@H](N(C)C)[C@H]2O)[C@](C)(O)C[C@@H](C)[C@@H]2N[C@@H](COCCOC)O[C@H]([C@H]2C)[C@]1(C)O [Dirithromycin] | 0.966 ± 0.052 | 1 ± 0.056
21 | O=C1CC2(CCCC2)CC(=O)N1CCCCN1CCN(c2ncccn2)CC1 [Buspirone hydrochloride] | 1 ± 0.036 | 1.06 ± 0.14
22 | CC(C)CC(=O)N[C@H](C(=O)N[C@H](C(=O)N[C@@H](CC(C)C)[C@@H](O)CC(=O)N[C@@H](C)C(=O)N[C@@H](CC(C)C)[C@@H](O)CC(=O)O)C(C)C)C(C)C [Pepstatin A] | 0.913 ± 0.017 | 0.847 ± 0.067
23 | C[C@H](O)C(=O)Nc1c(I)c(C(=O)NC(CO)CO)c(I)c(C(=O)NC(CO)CO)c1I [Iopamidol] | 0.952 ± 0.093 | 1.09 ± 0.06
24 | C[C@H]1C[C@H]2[C@@H]3CCC4=CC(=O)C=C[C@]4(C)[C@@]3(F)[C@@H](O)C[C@]2(C)[C@@]1(O)C(=O)CO [Betamethasone] | 0.504 ± 0.018 | 0.604 ± 0.032
25 | Oc1ccc(OCc2ccccc2)cc1 [Monobenzone] | 0.591 ± 0.076 | 0.711 ± 0.019
26 | CC(C(=O)O)c1ccc(N2Cc3ccccc3C2=O)cc1 (stereo unspecified) [Indoprofen] | 1.012 ± 0.0016 | 1.08 ± 0.013
27 | CC1=Nc2ccc(Cl)cc2S(=O)(=O)N1 [Diazoxide] | 0.95 ± 0.024 | 1.01 ± 0.054
28 | C=C1/C(=C\C=C2/CCC[C@]3(C)[C@@H]([C@H](C)/C=C/[C@@H](O)C4CC4)CC[C@@H]23)C[C@@H](O)C[C@@H]1O [Calcipotriene] | 1.02 ± 0.034 | 0.891 ± 0.12
29 | Cc1ccc(Cl)c(Nc2ccccc2C(=O)O)c1Cl [Meclofenamic acid sodium salt monohydrate] | 1.08 ± 0.077 | 0.986 ± 0.036
30 | O=C(NCCO[N+](=O)[O-])c1cccnc1 [Nicorandil] | 1.15 ± 0.018 | 1.32 ± 0.37
31 | COC(=O)Nc1nc2ccc(SC(C)C)cc2[nH]1 [Methiazole] | 0.214 ± 0.0082 | 0.221 ± 0.025
32 | CN(C)CCOc1ccc(/C(=C(/CCCl)c2ccccc2)c2ccccc2)cc1 [Toremifene] | 0.716 ± 0.067 | 0.875 ± 0.052
33 | CCN1CCN(C(=O)N[C@@H](C(=O)N[C@@H]2C(=O)N3C(C(=O)O)=C(CSc4nnnn4C)CS[C@H]23)c2ccc(O)cc2)C(=O)C1=O [Cefoperazone dihydrate] | 0.989 ± 0.056 | 1.08 ± 0.05
34 | COCCOC(=O)C1=C(C)NC(C)=C(C(=O)OC/C=C/c2ccccc2)C1c1cccc([N+](=O)[O-])c1 (stereo unspecified) [Cilnidipine] | 0.98 ± 0.03 | 1.01 ± 0.015
35 | CCCCNc1ccc(C(=O)OCCOCCOCCOCCOCCOCCOCCOCCOCCOC)cc1 [Benzonatate] | 0.983 ± 0.021 | 0.97 ± 0.027
36 | CCn1nc(C(=O)O)c(=O)c2cc3c(cc21)OCO3 [Cinoxacin] | 1.02 ± 0.067 | 1.01 ± 0.033
37 | Cc1cc(/C=C/c2ccc3cc(N(C)C)ccc3[n+]2C)c(C)n1-c1ccccc1 [Pyrvinium pamoate] | 0.132 ± 0.0063 | 0.172 ± 0.012
38 | CCCc1nc(C)c2c(=O)nc(-c3cc(S(=O)(=O)N4CCN(CC)CC4)ccc3OCC)[nH]n12 [Vardenafil] | 1.04 ± 0.023 | 1.02 ± 0.07
